The list shows a part of the results. The full chains were built here from the parent and the listed change. Values near 0.05 are background.

To fix the notation:
B1: TEV protease; numbered along this chain (parent)
chain: MGESLFKGPRDYNPISSSICHLTNESDGHTTSLYGIGFGPFIITNKHLFRRNNGTLVVQSLHGVFKVKDTTTLQQHLVDGRDMIIIRMPKDFPPFPQKLKFREPQREERICLVTTNFQTKSMSSMVSDTSCTFPSGDGIFWKHWIQTKDGQCGSPLVSTRDGFIVGIHSASNFTNTNNYFTSVPKNFMELLTNQEAQQWVSGWRLNADSVLWGGHKVFMVKPEEPFQPVKEATQL
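Also: Bxb1 expression induced with 0.2% (w/v) L-rhamnose at OD600 near 0.5, cultures sampled hourly, flipped fraction per protease–substrate barcode pair counted by paired-end Illumina sequencing.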

In the assay the parent is B1. The assay is described as follows: raw area under fraction-flipped curve 0-4 h after induction (AUC4h, not background-subtracted), DNA-recorder readout of cleavage of the substrate (dimensionless); higher = more cleavage of the substrate by the protease variant. The settings on record: temperature: 34 °C; time window: 0-4 h after rhamnose induction.
As to MGESLFKGPRDYNPISSSICHLTNESDGHTTSLYGIGFGPFIITNKHLFRRNNGTLVVQSLHGVFKVKDTTTLQQHLVDGRDMIIIRMPKDFPPFPQKLKFREPQREERICLVTTNFQTKSMSSMVSDTSCTFPSGDGIFWKHWIQTKDGQCGSPLVSTRDGFIVGIHSASNQTNTNNYFTSVPKNFMELLTNQEAQQWVSGWRLNADSVLWGGHKVFMVKPEEPFQPVKEATQL [F173Q], the “area with substrate ENEYFQS” value was found to be 0.0537, the “area with substrate ENKYFQS” value turned out to be 0.0742, the “area with substrate ENQYFQS” value was 0.0578 and the “area with substrate ENVYFQS” value came to 0.0609.

Take MGESLFKGPRDYNPISSSICHLTNESDGHTTSLYGIGFGPFIITNKHLFRRNNGTLVVQSLHGVFKVKDTTTLQQHLVDGRDMIIIRMPKDFPPFPQKLKFREPQREERICLVTTNFQTKSMSSMVSDTSCTFPSGDGIFWKHWIQTKDGQCGSPLVSTRDGFIVGIHSASNFTNTNNYFTSVPKNFMELLTNQEAQQWVSGWRLNADSVLWGGHKVFMVAPEEPFQPVKEATQL [K221A]: the “area with substrate ENDYFQS” value was determined as 0.0705, the “area with substrate ENHYFQS” value is 0.0632, the “area with substrate ENKYFQS” value was 0.0514 and the “area with substrate ENNYFQS” value was 0.0636. Also, the “area with substrate ENPYFQS” value worked out at 0.0844, the “area with substrate ENSYFQS” value was 0.0613 and the “area with substrate ENVYFQS” value is 0.0713.

Take MGESLFKGPRDYNPISSSICHLTNESDGHTTSLYGIGFGPFIITNKHLFRRNNGTLVVQSLHGVFKVKDTTTLQQHLVDGRDMIIIRMPKDFPPFPQKLKFREPQREERICLVTTNFQTKSMSSMVSDTSCTFPSGDGIFWKHWIQTKDGQCGSPLVSTRDGFIVGIHSASNFTNTNWYFTSVPKNFMELLTNQEAQQWVSGWRLNADSVLWGGHKVFMVKPEEPFQPVKEATQL [N178W]: the “area with substrate ENEYFQS” value is 0.0705, the “area with substrate ENQYFQS” value came out at 0.0495 and the “area with substrate ENYYFQS” value is 0.0551.

As to MGESLFKGPRDYNPISSSICHLTNESDGHTTSLYGIGFGPFIITNKHLFRRNNGTLVVQSLHGVFKVKDTTTLQQHLVDGRDMIIIRMPKDFPPFPQKLKFREPQREERICLVTTNFQTKSMSSMVSDTSCTFPSGDGIFWKHWIQTKDGQCGSPLVSTRDGFIVGIHSASNFTNTNTYFTSVPKNFMELLTNQEAQQWVSGWRLNADSVLWGGHKVFMVKPEEPFQPVKEATQL [N178T], the “area with substrate ENEYFQS” value stood at 0.0605, the “area with substrate ENFYFQS” value is 0.0602, the “area with substrate ENGYFQS” value worked out at 0.0613 and the “area with substrate ENHYFQS” value amounted to 0.0604. For the same variant, the “area with substrate ENKYFQS” value stood at 0.053, the “area with substrate ENNYFQS” value is 0.0629, the “area with substrate ENPYFQS” value came out at 0.0814 and the “area with substrate ENQYFQS” value is 0.0562. Moreover, the “area with substrate ENRYFQS” value was 0.0631, the “area with substrate ENSYFQS” value was found to be 0.0655 and the “area with substrate ENWYFQS” value was found to be 0.0508.

Turning to MGESLFKGPRDYNPISSSICHLTNESDGHTTSLYGIGFGPFIITNKHLFRRNNGTLVVQSLHGVFKVKDTTTFQQHLVDGRDMIIIRMPKDFPPFPQKLKFREPQREERICLVTTNFQTKSMSSMVSDTSCTFPSGDGIFWKHWIQTKDGQCGSPLVSTRDGFIVGIHSASNFTNTNNYFTSVPKNFMELLTNQEAQQWVSGWRLNADSVLWGGHKVFMVKPEEPFQPVKEATQL [L73F], the “area with substrate ENEYFQS” value was determined as 0.0518, the “area with substrate ENGYFQS” value amounted to 0.0638, the “area with substrate ENHYFQS” value was found to be 0.0508 and the “area with substrate ENIYFQS” value is 0.0606. For the same variant, the “area with substrate ENNYFQS” value came out at 0.055, the “area with substrate ENQYFQS” value was 0.0561, the “area with substrate ENRYFQS” value came to 0.0716 and the “area with substrate ENSYFQS” value is 0.0686. Moreover, the “area with substrate ENTYFQS” value worked out at 0.0744 and the “area with substrate ENYYFQS” value is 0.0458.

As for MGESLFKGPRDYNPISSSICHLTNESDGHTTSLWGIGFGPFIITNKHLFRRNNGTLVVQSLHGVFKVKDTTTLQQHLVDGRDMIIIRMPKDFPPFPQKLKFREPQREERICLVTTNFQTKSMSSMVSDTSCTFPSGDGIFWKHWIQTKDGQCGSPLVSTRDGFIVGIHSASNFTNTNNYFTSVPKNFMELLTNQEAQQWVSGWRLNADSVLWGGHKVFMVKPEEPFQPVKEATQL [Y34W], the “area with substrate ENFYFQS” value was found to be 0.062, the “area with substrate ENMYFQS” value turned out to be 0.0725, the “area with substrate ENQYFQS” value is 0.0736 and the “area with substrate ENTYFQS” value came to 0.0632.

Regarding MGESLFKGPRDYNPISSSICHLTNESDGHTTSLYGIGFGPFIITNKHLFRRNNGTLVVQSLHGVFKVKDTTTLQQHLVDGRDMIIIRMPKDFPPFPQKLKFREPQREERICLVTTNFQTKSMSSMVSDTSCTFPSGDGIFWKHWIQTKDGQCGSPLVSTRDGFIVGIHSASNFTNTNNNFTSVPKNFMELLTNQEAQQWVSGWRLNADSVLWGGHKVFMVKPEEPFQPVKEATQL [Y179N], the “area with substrate ENEYFQS” value is 0.081, the “area with substrate ENKYFQS” value amounted to 0.0535, the “area with substrate ENPYFQS” value came out at 0.0565 and the “area with substrate ENSYFQS” value was 0.0606. In addition, the “area with substrate ENYYFQS” value was determined as 0.0791.

MGISLFKGPRDYNPISSSICHLTNESDGHTTSLYGIGFGPFIITNKHLFRRNNGTLVVQSLHGVFKVKDTTTLQQHLVDGRDMIIIRMPKDFPPFPQKLKFREPQREERICLVTTNFQTKSMSSMVSDTSCTFPSGDGIFWKHWIQTKDGQCGSPLVSTRDGFIVGIHSASNFTNTNNYFTSVPKNFMELLTNQEAQQWVSGWRLNADSVLWGGHKVFMVKPEEPFQPVKEATQL [E3I]: the “area with substrate ENEYFQS” value came out at 0.0744, the “area with substrate ENFYFQS” value stood at 0.0466, the “area with substrate ENHYFQS” value amounted to 0.0675 and the “area with substrate ENIYFQS” value came to 0.146. In addition, the “area with substrate ENNYFQS” value worked out at 0.075, the “area with substrate ENPYFQS” value turned out to be 0.0595, the “area with substrate ENQYFQS” value came out at 0.0648 and the “area with substrate ENRYFQS” value turned out to be 0.0556. The “area with substrate ENSYFQS” value was 0.0257 and the “area with substrate ENTYFQS” value was 0.0351.

MGESLFKGPRDYNPISSSICHLTNESDGHTTSLYGIGFGPFIITNKHLFRRNNGTLVVQSLHGVFKVKDTTTLQQHLVDGRDMIIIRMPKDFPPFPQKLKFREPQREERICLVTTMFQTKSMSSMVSDTSCTFPSGDGIFWKHWIQTKDGQCGSPLVSTRDGFIVGIHSASNFTNTNNYFTSVPKNFMELLTNQEAQQWVSGWRLNADSVLWGGHKVFMVKPEEPFQPVKEATQL [N116M]: the “area with substrate ENEYFQS” value was determined as 0.0509, the “area with substrate ENHYFQS” value turned out to be 0.0841, the “area with substrate ENKYFQS” value was 0.0535 and the “area with substrate ENRYFQS” value was 0.0608. The “area with substrate ENWYFQS” value was determined as 0.0303.

On to MGESLFKGPRDYNPISSSICHLTNESDGHTTSLYCIGFGPFIITNKHLFRRNNGTLVVQSLHGVFKVKDTTTLQQHLVDGRDMIIIRMPKDFPPFPQKLKFREPQREERICLVTTNFQTKSMSSMVSDTSCTFPSGDGIFWKHWIQTKDGQCGSPLVSTRDGFIVGIHSASNFTNTNNYFTSVPKNFMELLTNQEAQQWVSGWRLNADSVLWGGHKVFMVKPEEPFQPVKEATQL [G35C], for which the “area with substrate ENEYFQS” value came to 0.0523, the “area with substrate ENHYFQS” value stood at 0.0513, the “area with substrate ENNYFQS” value was 0.0339 and the “area with substrate ENSYFQS” value was 0.053. The “area with substrate ENTYFQS” value turned out to be 0.0498.

In the case of MGESLFKGPRDYNPISSSICHLTNESDGHTTSLYGIGFGPFIITNKHLFRRNNGTLVVQSLHGVFKVKDTTTLQQHLVDGRDMIIIRMPKDFPPFPKKLKFREPQREERICLVTTNFQTKSMSSMVSDTSCTFPSGDGIFWKHWIQTKDGQCGSPLVSTRDGFIVGIHSASNFTNTNNYFTSVPKNFMELLTNQEAQQWVSGWRLNADSVLWGGHKVFMVKPEEPFQPVKEATQL [Q97K], the “area with substrate ENEYFQS” value was 0.0476, the “area with substrate ENFYFQS” value came to 0.0515, the “area with substrate ENKYFQS” value turned out to be 0.08 and the “area with substrate ENRYFQS” value is 0.0583. Also, the “area with substrate ENSYFQS” value amounted to 0.0705 and the “area with substrate ENWYFQS” value was determined as 0.059.

These data come from the supplement of paper PMC12217912.
